Where “and” joins values, the source holds several entries; their conditions need not be identical. Identical values can stand only once. The campaign covered roughly 420,000 compounds. About 50,000 (12%) were called active. Inconclusive means that the source gave no clear call. Such entries were picked first, then a sample of the others. The call rests on the fitted dose curve; in most records, active means well fitted inhibition curve with a large enough effect; inconclusive means small, poorly fitted or top-dose-only effect; inactive means flat fitted curve, though single readings scatter. A potency beside an inconclusive call is a rough fit, not a confirmed value.
Test: qHTS for Inhibitors of human tyrosyl-DNA phosphodiesterase 1 (TDP1): qHTS in cells in presence of CPT; further: nearly all actives have a fitted effect of over 55% in size
Settings: chicken DT40 Tdp1-/-;hTDP1 cells + 20 nM CPT, ATP luminescence, 48 h; activity change, negative = growth inhibition: at 46.2 µM (top of the series) unless noted
Text: Human tyrosyl-DNA phosphodiesterase 1 (TDP1) is a novel repair gene, and we propose to use it as a new target for anticancer drug development. TDP1 is not an essential protein, but under treatment with topoisomerase I poison (camptothecin: CPT), TDP1 works as a critical factor for cell survival. To directly identify novel TDP1 inhibitors active in a cellular environment, we have knocked-out the Tdp1 gene in chicken DT40 cells (Tdp1-/-) and generated a complemented counterpart cells that contains a stable transfection of the human TDP1 gene (Tdp1-/-;hTDP1 cells). For the primary screen, Tdp1-/-;hTDP1 cells will be exposed to small molecules in the presence or absence of CPT, and their growth kinetics will be evaluated after 48 hours by measuring ATP activity. […] The hit compounds will then be evaluated in the presence or absence of CPT using Tdp1-/- cells. […] In tertiary assays, biochemical gel-based assays will be used to assess whether the hit compounds specifically target TDP1. To this end, we have screened this cell line against the MLSMR in two primary screens. In one screen we add CPT and in the other we screen in the absence of CPT; this AID represents the screen where CPT was present. NIH Chemical Genomics Center [NCGC] NIH Molecular Libraries Probe Centers Network [MLPCN] MLPCN Grant: MH095538 Assay Submitter (PI): Yves Pommier, NCI
DT40-hTDP1 cells with 20 nM Camptothecin (add 20 microL of 1 mM CPT stock in 1 L of cell culture medium) were dispensed at 400 cells/5microL/well in tissue culture treated 1536-well white wall/solid bottom assay plates (Greiner Bio-One North America, NC, U.S.A.) using a Multidrop Combi 8 channel dispenser (Thermo Fisher, Waltham, MA, USA). 23 nL compounds and controls were transferred using the pin tool (Kalypsys, San Diego, CA, USA) to the assay plates. The assay plates were then incubated at 37 masculineC for a minimum 48 hr. Three microL of Cell Titer Glo solution was added to the plates and incubated at RT in dark for 30 min. Luminescence was read using ViewLux (Perkin Elmer) with 1 sec exposure slow speed, high gain and 2x binning.
On the % scale 0 is the no-effect control and ±100 the full control effect; potency means the concentration at half of the fitted maximal effect; tags describe the fitted curve by direction and shape.

Structure (SMILES) | Potency | activity change, negative = growth inhibition
O=C(CCCN1CCC2(CC1)C(=O)N(Cc1cccc(F)c1)CN2c1ccccc1)c1ccc(F)cc1 | active: 29.9 µM | –
CCN(CC)C(=O)c1ccc(NC(=O)c2cc(-n3cnnc3)ccc2Cl)cc1 | – | inactive: -5.77%
CCC(C)n1c(O)c(/C=N/Nc2ccccc2)c(=O)[nH]c1=S (configuration not stated) | – | inactive: -1.66%
CC(C)(C)c1ccc(C(=O)C2CCCN(Cc3ccon3)C2)cc1 (configuration not stated) | inconclusive: 18.4 µM [inhibitor, partial curve] | –
c1ccc2c(c1)[nH]c1cnccc12 | inactive | –
CN1C(=O)N(C)C(=O)C(CCc2ccncc2)(Cc2ccc3c(c2)OCO3)C1=O | inconclusive: 29.1 µM [inhibitor, single point] | –
COc1cc(-c2ccc(-[n+]3nc(-c4ccccc4)nn3-c3ccc([N+](=O)[O-])cc3)c(OC)c2)ccc1-[n+]1nc(-c2ccccc2)nn1-c1ccc([N+](=O)[O-])cc1 | active: 2.66 µM | –
O=C1C=C(N2CC2)c2ccccc2C1=O | inconclusive: 25.9 µM [inhibitor, single point] | –
c1cc2c(c(NC3=NCCN3)c1)CCCC2 | inconclusive: 33.5 µM [inhibitor, single point] | –
COC(=O)C1=C(c2ccc(F)cc2OCc2ccccc2)C[C@@H]2CC[C@H]1N2C(=O)NCc1ccc(C(C)(C)C)cc1 | inconclusive: 25.9 µM [inhibitor, single point] | –
O=C(CF)N(O)c1ccc(C=Cc2ccccc2)cc1 | active: 0.13 µM | –
O=C(NCc1ccccc1)c1cccc(Nc2nc3ccccc3n3nnnc23)c1 | active: 20.6 µM | –
O=C(C[N+]12CCC(CC1)C(OC(=O)c1ccccc1)C2)c1ccc([N+](=O)[O-])cc1 (configuration not stated) | inconclusive: 29.1 µM [inhibitor, single point] | –
O=C(Nc1nnc(-c2ccco2)o1)c1cccc2ccccc12 | inconclusive: 29.1 µM [inhibitor, single point] | –
COc1ccc(/C=C/c2nc(-c3ccccc3O)n(-c3ccccc3)n2)cc1OC | active: 10.3 µM | –
CC(=O)n1cc(C=C2C(=O)NC(=O)NC2=O)c2ccccc21 | inconclusive: 29.1 µM [inhibitor, single point] | –
COc1ccc(Nc2ncc(C(=O)N3CCC4(CC3)OCCO4)c3ccccc23)cc1 | inconclusive: 18.4 µM [inhibitor, single point] | –
COCOC1CCC2C3CCC4=CC(=O)CCC4=C3C=CC12C (configuration not stated) | inconclusive: 18.4 µM [inhibitor, single point] | –
COc1ccc(N2CCN(Cc3nc4c(c(=O)[nH]c(=O)n4C)n3Cc3ccc(Cl)cc3)CC2)cc1 | inconclusive: 5.8 µM [inhibitor, single point] | –
O=S1(=O)N(CCN2CC=C(c3c[nH]c4cc(F)ccc34)CC2)c2cccc3c2N1CCC3 | active: 9.2 µM | –
Clc1ccccc1CNC1CN2CCC1CC2 (configuration not stated) | inconclusive: 29.1 µM [inhibitor, single point] | –
CC(=O)OC1C[C@]2(C)C(C(C)=O)CCC2C2CCC3=CC(=O)CC[C@@]3(C)C12 (some centres not stated) | inconclusive: 13 µM [inhibitor, single point] | –
N#CC(C#N)=Cc1ccc([N+](=O)[O-])c(O)c1 | inactive | –
COc1cc(C(=O)Nc2ccc(Br)cc2C(=O)c2ccccc2Cl)cc(OC)c1OC | inconclusive: 29.1 µM [inhibitor, single point] | –

Structure (SMILES) | Potency | activity change, negative = growth inhibition
Cc1ccsc1CNCCc1ccc(F)cc1 | – | inconclusive: -34.1% [inhibitor]
COC(=O)C1=C(c2ccc(F)cc2OCc2ccccc2)C[C@@H]2CC[C@H]1N2C(=O)NCc1ccc2c(c1)OCO2 | inconclusive: 20.6 µM [inhibitor, single point] | –
COc1ccc(CCn2c(O)c(C=Nc3ccc(F)cc3)c(=O)[nH]c2=O)cc1OC | inconclusive: 25.9 µM [inhibitor, single point] | –
COc1ccc(CNCCc2c[nH]c3ccccc23)cc1OC | inconclusive: 29.1 µM [inhibitor, single point] | –
CS(=O)(=O)N1CCC2(CC1)CN(Cc1ccncc1)C2 | – | inactive: 1.89%
NC(=NCCCC(N)C(=O)O)N[N+](=O)[O-] (configuration not stated) | – | inactive: -18.9%
O=c1cccc2n1CC1CC2CN(Cc2cccc(Cl)c2Cl)C1 (configuration not stated) | inconclusive: 25.9 µM [inhibitor, single point] | –
CNC(=O)Oc1ccccc1C(=O)Nc1ccccc1 | inconclusive: 29.9 µM [inhibitor, single point] | –
COc1ccc(Br)cc1CNCCc1cccc(Cl)c1 | active: 18.4 µM | –
COC(=O)c1cn(S(=O)(=O)c2ccccc2)c2ccccc12 | inconclusive: 29.1 µM [inhibitor, single point] | –
Cc1ncoc1C(=O)NCC1=C(c2cccc3ccccc23)C[C@@H]2CC[C@H]1N2Cc1ccco1 | inconclusive: 29.1 µM [inhibitor, single point] | –
C=CCN1C(=O)c2ccccc2Sc2ccc(C(=O)N3CCC4(CC3)OCCO4)cc21 | inconclusive: 11.6 µM [inhibitor, partial curve] | –
COC1=CC=C2[C@H]3Cc4ccc(OC)c5c4[C@@]2(CCN3C)C1O5 (some centres not stated) | – | inactive: -2%
COc1ccc(/C=C2\C(=N\O)C3CCN2CC3)cc1 | inconclusive: 14.6 µM [inhibitor, partial curve] | –
Cc1cc(Cl)ccc1C(=O)C1CCCN(Cc2ccon2)C1 (configuration not stated) | inconclusive: 29.1 µM [inhibitor, single point] | –
CN1C(=O)N(C)C(=O)C(NS(=O)(=O)c2ccc(N)cc2)(c2ccccc2)C1=O | – | inactive: -1.01%
COc1cc(C)c(C(=O)CC(=O)c2c(C)cc(OC)cc2C)c(C)c1 | active: 14.6 µM | –
CC(C)C(=O)Nc1ccc(S(=O)(=O)N2CC3CC(C2)c2cccc(=O)n2C3)cc1 (configuration not stated) | – | inactive: -4.74%
O=C1NC(=O)N(c2ccc(F)cc2)C(=O)/C1=C/c1ccc2c(c1)CCCN2Cc1ccccc1 | inconclusive: 29.1 µM [inhibitor, single point] | –
Clc1ccc(CSc2nnc(-c3ccccn3)n2Cc2ccco2)cc1Cl | inconclusive: 23.1 µM [inhibitor, single point] | –
CCOC(=O)[C@]12Cc3cc(OC)ccc3[C@H]1N(CCC(=O)OC)C(=O)c1cc(OC)ccc12 | inconclusive: 29.1 µM [inhibitor, single point] | –
COC(=O)c1cn(Cc2ccc(F)cc2)c2ccccc12 | – | inconclusive: -31.6% [inhibitor]
CC(Cc1ccccc1)N(C)CC1C(=O)C2CCC1C2 (configuration not stated) | inconclusive: 32.6 µM [inhibitor, single point] | –
CCOc1cccc(CNCCc2c(C)[nH]c3ccc(OC(F)(F)F)cc23)c1O | active: 2.91 µM | –

Structure (SMILES) | Potency | activity change, negative = growth inhibition
O=C(O)C1C2CCC(O2)C1C(=O)Nc1cccc(Br)c1 (configuration not stated) | – | inactive: 2.26%
Cc1ccc(C2NC(=S)N3C(c4ccc(C)cc4)NC(=S)N23)cc1 (configuration not stated) | inconclusive: 18.4 µM [inhibitor, single point] | –
C[C@]12CCC(=O)C=C1CC[C@@H]1C2[C@H](O)C[C@]2(C)C(=O)CCC12 (some centres not stated) | – | inactive: 1.48%
Oc1ccc(C2NCc3ccccc3-n3cccc32)cc1Cl (configuration not stated) | inconclusive: 29.1 µM [inhibitor, single point] | –
Nc1c(C(=O)NCc2ccco2)c2nc3ccccc3nc2n1Cc1ccccc1 | active: 16.4 µM | –
CN1CCC(N(C)c2ccc(C(N)=O)cc2[N+](=O)[O-])CC1 | – | inactive: 8.03%
CCOC(=O)c1c(/N=C/c2c(O)n(-c3cccc(C)c3)c(=O)[nH]c2=O)sc2c1CCCC2 | inconclusive: 29.1 µM [inhibitor, single point] | –
Cc1nn(Cc2ccccc2)c(C)c1C(=O)O | – | inactive: 5.38%
O=[N+]([O-])c1[nH]cnc1Br | – | inactive: 9.91%
Cc1oc(-c2ccc(Cl)cc2)nc1CN1C(=O)CN=C(c2ccccc2)c2ccccc21 | inconclusive: 29.1 µM [inhibitor, single point] | –
CCC(=NCc1cccnc1)c1c(O)n(-c2ccc(C)cc2)c(=O)[nH]c1=O | inconclusive: 20.6 µM [inhibitor, single point] | –
C=CCC1([C@H](C)CCC)C(=O)NC(=O)NC1=O | – | inactive: -20.1% [at 92.5 µM]
Cc1cccc(-n2c(O)c(C=NCCN3CCCCC3)c(=O)[nH]c2=O)c1 | – | inactive: 0.699%
O=[N+]([O-])c1ccc(O)c([N+](=O)[O-])c1 | inactive and inconclusive: 29.1 µM [inhibitor, single point] | –
CN1CCCC2(CCN(C(=O)c3csnn3)CC2)C1 | – | inactive: 11.4%
CSCCC(c1nnnn1-c1ccc2c(c1)OCCO2)N1CCC2(CC1)C(=O)NCN2c1ccccc1 (configuration not stated) | inconclusive: 29.1 µM [inhibitor, single point] | –
COc1ccccc1N1CCN(Cc2ccccc2Cl)CC1 | inconclusive: 23.1 µM [inhibitor, single point] | –
O=c1[nH]c2ccccc2c(=O)n1-c1ccc(Cl)c(Cl)c1 | inconclusive: 23.1 µM [inhibitor, single point] | –
CCN(CC)C(=O)c1ccc2c(c1)C1C(Cl)C(Sc3ccccc3[N+](=O)[O-])CC1C(C(=O)O)N2 (configuration not stated) | inconclusive: 18.4 µM [inhibitor, single point] | –
Cc1cccc(NC(=O)Cn2cc(C(=O)c3ccccc3)c3ccccc32)c1C | inconclusive: 25.9 µM [inhibitor, single point] | –
C[C@]12CC[C@@H](O)CC1=CCC1C2CC[C@@]2(C)C1CC[C@@H]2O (some centres not stated) | – | inactive: -7.67%
COc1cccc(C(=O)N2CCC3(CC2)OCCO3)c1 | – | inactive: -0.0106%
CCCCn1c(O)c(C(C)=NCCN2CCOCC2)c(=O)[nH]c1=O | – | inactive: 6.1%
COc1ccccc1CC(=O)Nc1ccc2c(c1)OC1(CCCC1)O2 | inconclusive: 29.1 µM [inhibitor, single point] | –

Reference: PubChem BioAssay AID686979 (National Center for Advancing Translational Sciences (NCATS), 2013)
